Here are results for 27 molecules from PubChem BioAssay AID1745853 (National Center for Advancing Translational Sciences (NCATS), 2022).

Several values for one entry are separate records, joined by “and”; a condition that tells them apart may be missing. Identical values can stand only once. The list shows a part of the results. Further columns of the screen follow, without active or inactive calls.

What all share (assay): Primary Screen for Target Class Profiling of Small Molecule Inhibitors of Methyltransferases
Experiment [1] concerns the target Glycine N-methyltransferase (Homo sapiens) (UniProt Q14749). Conditions: purified enzyme, MTase-Glo SAH luminescence; measured here: GNMT inhibition; at 40 µM; stronger effect = lower value. An outline of the steps: (§1)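 Each enzyme was reacted with SAM and its substrate, with compounds tested once at 40 uM; SAH formed was read by MTase-Glo luminescence.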
Experiment [2] deals with Guanidinoacetate N-methyltransferase (Homo sapiens) (UniProt Q14353). Particulars: purified enzyme, MTase-Glo SAH luminescence; measured here: GAMT inhibition; at 40 µM; stronger effect = lower value. An outline of the steps:
as §1

Experiment [3] concerns the target Histamine N-methyltransferase (Homo sapiens) (UniProt P50135). Particulars: purified enzyme, MTase-Glo SAH luminescence; measured here: HNMT inhibition; at 40 µM; stronger effect = lower value. A digest of the protocol: as §1
In experiment [4] the target is Nicotinamide N-methyltransferase (Homo sapiens) (UniProt P40261). Particulars: purified enzyme, MTase-Glo SAH luminescence; measured here: NNMT inhibition; at 40 µM; stronger effect = lower value. A digest of the protocol:
as §1

Experiment [5] deals with Phenylethanolamine N-methyltransferase (Homo sapiens) (UniProt P11086). Particulars: purified enzyme, MTase-Glo SAH luminescence; measured here: PNMT inhibition; at 40 µM; stronger effect = lower value. An outline of the steps: as §1
% is set by controls: 0 for no effect and ±100 for the full control effect.

As to `CC1(C)CC[C@]2(C(=O)O)CC[C@]3(C)C(=CCC4[C@@]5(C)CC[C@H](O[C@@H]6O[C@H](CO)[C@@H](O)[C@H](O)[C@H]6O[C@@H]6O[C@H](CO)[C@@H](O)[C@H](O)[C@H]6O)[C@@](C)(CO)C5CC[C@]43C)[C@@H]2C1` (some centres not stated), the activity change, negative = inhibition is -2.38% in experiment [1]; -2.43% in experiment [2]; 4.48% in experiment [3]; -16.2% in experiment [4]; 0.11% in experiment [5].

Take `CCOCCCNC(=O)C1c2c(n(C)c3ccccc23)SCC(=O)N1c1ccc(C(=O)OCC)cc1` (configuration not stated): the activity change, negative = inhibition turned out to be 4.84% in experiment [1]; 2.3% in experiment [2]; 0.844% in experiment [3]; 1.23% in experiment [4]; 5.28% in experiment [5].

`CCN1C(=O)c2cc(C(=O)NCc3ccc(OC)c(OC)c3)nn2CC1(C)C(=O)NC1CCCC1` (configuration not stated): the activity change, negative = inhibition in experiment [1] is -0.166%; in experiment [2] it was 0%; in experiment [3], -7.18%; in experiment [4], 1.37%; in experiment [5] it was 3.4%.

For the molecule `O=C(c1ccncc1)N1CCC(Nc2cccnc2)C1` (configuration not stated), the activity change, negative = inhibition in experiment [1] is -25.2%; in experiment [2], -14.6%; in experiment [3], -7.95%; in experiment [4], -12.1%; in experiment [5] it was -27.3%.

On to `COc1cccc(CN2C(=O)c3ccc(-c4ccco4)n3CC2(C)C(=O)NC2CCCC(C)C2C)c1` (configuration not stated), for which the activity change, negative = inhibition is -0.706% in experiment [1]; 0.084% in experiment [2]; 3.75% in experiment [3]; -11.4% in experiment [4]; -1.16% in experiment [5].

For `Cc1ccc(Cn2c(=O)c3ccccc3n3c(-c4cc(Br)cs4)nnc23)cc1`, the activity change, negative = inhibition in experiment [1] is -4.05%; in experiment [2], 1.46%; in experiment [3] it was 1.46%; in experiment [4], 3.05%; in experiment [5], -4.35%.

For `CCCn1c(=O)c2ccc(C(=O)NC3CCCC3)cc2n2c(=O)n(CC(=O)Nc3ccc(C)c(C)c3)nc12`, the activity change, negative = inhibition is -0.522% in experiment [1]; 0.648% in experiment [2]; -0.465% in experiment [3]; -1.54% in experiment [4]; 1.09% in experiment [5].

In the case of `O=C(CCc1ccccc1)N1CCC(O)(Cn2cnc3cc(Cl)ccc3c2=O)CC1`, the activity change, negative = inhibition was 2.96% in experiment [1]; -1.17% in experiment [2]; 7.46% in experiment [3]; -13.7% in experiment [4]; -3.76% in experiment [5].

Regarding `CCCCN1C(=O)c2cc3c(OC)ccc(OC)c3n2CC1(C)C(=O)NC1CCC(C)CC1` (configuration not stated), the activity change, negative = inhibition in experiment [1] was -4.61%; in experiment [2], 4.71%; in experiment [3], 2.81%; in experiment [4], 0.615%; in experiment [5], -0.48%.

As for `c1coc(-c2nnc([C@H]3CCN(Cc4c[nH]c5ccccc45)C3)o2)c1`, the activity change, negative = inhibition was -4.57% in experiment [1]; -5.22% in experiment [2]; -38.9% in experiment [3]; -12.2% in experiment [4]; -21.7% in experiment [5].

`NC(=O)Nc1cc(-c2cccc(F)c2)sc1C(=O)N[C@H]1CCCNC1`: the activity change, negative = inhibition in experiment [1] was -5.61%; in experiment [2], 5.11% and 5.56%; in experiment [3], -20.7%; in experiment [4], -29.4% and -28.7%; in experiment [5], 0.131% and -8.72%.

`C[C@H]1CC[C@@]2(OC1)O[C@H]1CC3C4CC[C@H]5C[C@@H](O)CC[C@]5(C)C4CC(=O)[C@]3(C)[C@H]1[C@@H]2C` (some centres not stated): the activity change, negative = inhibition is -0.903% in experiment [1]; -9.48% in experiment [2]; 7.42% in experiment [3]; -22.9% in experiment [4]; 1.02% in experiment [5].

Turning to `CCOC(=O)CNC(=O)N1CCn2cccc2C1C` (configuration not stated), the activity change, negative = inhibition in experiment [1] is 6.25%; in experiment [2], 0%; in experiment [3], 12.5%; in experiment [4] it was -3.7%; in experiment [5], 6.08%.

`COc1cc(C[C@@]2(O)CO[C@@H](c3ccc(O[C@@H]4O[C@H](CO)[C@@H](O)[C@H](O)[C@H]4O)c(OC)c3)[C@H]2CO)ccc1O`: the activity change, negative = inhibition in experiment [1] is 1.87%; in experiment [2] it was -1.99%; in experiment [3], 7.9%; in experiment [4], -13.6%; in experiment [5], 4.67%.

Regarding `CCOc1ccccc1CN1C(=O)c2cc3sccc3n2CC1(C)C(=O)NC1CCCC1` (configuration not stated), the activity change, negative = inhibition in experiment [1] is -5.65%; in experiment [2] it was 2.4%; in experiment [3], -10%; in experiment [4] it was -8.67%; in experiment [5], -6.26%.

Regarding `CCc1cc2c(cc3n2CC(C)(C(=O)NC2CCC(C)CC2)N(Cc2ccc(OC)cc2)C3=O)s1` (configuration not stated), the activity change, negative = inhibition was -4.95% in experiment [1]; 3.33% in experiment [2]; -2.77% in experiment [3]; -2.11% in experiment [4]; -2.55% in experiment [5].

On to `C=C1/C(=C/C=C2\CCC[C@@]3(C)C2CCC3[C@H](C)/C=C/[C@@H](O)C2CC2)C[C@@H](O)C[C@@H]1O` (some centres not stated), for which the activity change, negative = inhibition in experiment [1] is -20.9%; in experiment [3], -12.1%.

On to `O=C(c1ccc(F)cc1)C1CCN(CCn2c(=O)[nH]c3ccccc3c2=O)CC1`, for which the activity change, negative = inhibition in experiment [1] is -21% and -1.68%; in experiment [2], -0.24% and -8.09%; in experiment [3], -2.58% and 11.5%; in experiment [4], -12.9% and -14.6%; in experiment [5], -1.39% and -1.31%.

Consider `C=CC(C)(CCC=C(C)C)O[C@@H]1O[C@H](CO)[C@@H](O)[C@H](O)[C@H]1O` (some centres not stated), for which the activity change, negative = inhibition was 0.5% in experiment [1]; -3.62% in experiment [2]; 5.93% in experiment [3]; -15.7% in experiment [4]; 3.64% in experiment [5].

Take `CC1=CC2C(CC1OC1OC(CO)C(O)C(O)C1O)C(C)CC(=O)C2C(C)C` (configuration not stated): the activity change, negative = inhibition in experiment [1] is 2.31%; in experiment [2] it was -0.624%; in experiment [3], 10.5%; in experiment [4], -13.6%; in experiment [5], -8.51%.

As to `COCCOC1CN(C2CCN(S(C)(=O)=O)CC2)C12CCCCC2` (configuration not stated), the activity change, negative = inhibition in experiment [1] is -6.02%; in experiment [2], -10.5%; in experiment [3], -3.12%; in experiment [4], -10.9%; in experiment [5], -9.91%.

Consider `CC(C)CCCCC(=O)N[C@@H](CO)C(=O)N[C@@H](CC(C)C)C(=O)[C@@]1(CO)CO1`, for which the activity change, negative = inhibition was 0.46% in experiment [1]; 2.49% in experiment [2]; 4.71% in experiment [3]; -7.77% in experiment [4]; -2.23% in experiment [5].

As to `Cn1c(=O)n(C)c2cc(S(=O)(=O)NCCC(=O)O)ccc21`, the activity change, negative = inhibition in experiment [1] came to 5%; in experiment [2], 0%; in experiment [3], 8.6%; in experiment [4], 11.2%; in experiment [5] it was 2.83%.

As for `O=C(NCc1ccco1)[C@@H]1Cc2nc[nH]c2CN1CCCc1ccccc1`, the activity change, negative = inhibition in experiment [1] was -5.08%; in experiment [2], -6.19%; in experiment [3], -0.165%; in experiment [4], -6.72%; in experiment [5] it was 0.372%.

For `COc1cccc(-c2noc(-c3ccc(-c4cn[nH]c4)nc3)n2)c1OC`, the activity change, negative = inhibition is -6.85% in experiment [1]; -6.81% in experiment [2]; -4.78% in experiment [3]; -18.7% in experiment [4]; -11.8% in experiment [5].

In the case of `C[C@@H]1O[C@@H](O[C@H]2[C@H](O[C@H]3[C@H](O[C@H]4CC[C@@]5(C)C(CC[C@]6(C)C5CC=C5[C@@H]7CC(C)(C(=O)O)C[C@@H](O)[C@]7(C)CC[C@]56C)[C@@]4(C)CO)O[C@H](C(=O)O)[C@@H](O)[C@@H]3O)O[C@H](CO)[C@H](O)[C@@H]2O)[C@H](O)[C@H](O)[C@H]1O` (some centres not stated), the activity change, negative = inhibition in experiment [1] was -2.69%; in experiment [2], -2.71%; in experiment [3], 7.67%; in experiment [4] it was -18.9%; in experiment [5], 3.18%.

For `O=C(CSc1nnc2n(Cc3ccccc3)c(=O)c3ccccc3n12)Nc1ccccc1F`, the activity change, negative = inhibition was determined as 1.15% in experiment [1]; 0% in experiment [2]; 12.4% in experiment [3]; 5.95% in experiment [4]; 2.68% in experiment [5].
